# Test results published in article PMC4336329 (PLoS ONE, 2015).
# Screen size: about 310,000 compounds; about 14,000 (4.5%) showed an effect of 50% or more. The effect is printed as a negative number. The list shows a part of the results.
# Biological target: human ether-à-go-go-related gene (hERG) potassium channel (human, UniProt Q12809)
# Test: primary screen, population patch clamp on CHO cells stably expressing hERG
# 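Note: peak tail current of the secondary pulse compared with the same well before compound.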
# Sequence of human ether-à-go-go-related gene (hERG) potassium channel (Q12809 whole entry, looked up): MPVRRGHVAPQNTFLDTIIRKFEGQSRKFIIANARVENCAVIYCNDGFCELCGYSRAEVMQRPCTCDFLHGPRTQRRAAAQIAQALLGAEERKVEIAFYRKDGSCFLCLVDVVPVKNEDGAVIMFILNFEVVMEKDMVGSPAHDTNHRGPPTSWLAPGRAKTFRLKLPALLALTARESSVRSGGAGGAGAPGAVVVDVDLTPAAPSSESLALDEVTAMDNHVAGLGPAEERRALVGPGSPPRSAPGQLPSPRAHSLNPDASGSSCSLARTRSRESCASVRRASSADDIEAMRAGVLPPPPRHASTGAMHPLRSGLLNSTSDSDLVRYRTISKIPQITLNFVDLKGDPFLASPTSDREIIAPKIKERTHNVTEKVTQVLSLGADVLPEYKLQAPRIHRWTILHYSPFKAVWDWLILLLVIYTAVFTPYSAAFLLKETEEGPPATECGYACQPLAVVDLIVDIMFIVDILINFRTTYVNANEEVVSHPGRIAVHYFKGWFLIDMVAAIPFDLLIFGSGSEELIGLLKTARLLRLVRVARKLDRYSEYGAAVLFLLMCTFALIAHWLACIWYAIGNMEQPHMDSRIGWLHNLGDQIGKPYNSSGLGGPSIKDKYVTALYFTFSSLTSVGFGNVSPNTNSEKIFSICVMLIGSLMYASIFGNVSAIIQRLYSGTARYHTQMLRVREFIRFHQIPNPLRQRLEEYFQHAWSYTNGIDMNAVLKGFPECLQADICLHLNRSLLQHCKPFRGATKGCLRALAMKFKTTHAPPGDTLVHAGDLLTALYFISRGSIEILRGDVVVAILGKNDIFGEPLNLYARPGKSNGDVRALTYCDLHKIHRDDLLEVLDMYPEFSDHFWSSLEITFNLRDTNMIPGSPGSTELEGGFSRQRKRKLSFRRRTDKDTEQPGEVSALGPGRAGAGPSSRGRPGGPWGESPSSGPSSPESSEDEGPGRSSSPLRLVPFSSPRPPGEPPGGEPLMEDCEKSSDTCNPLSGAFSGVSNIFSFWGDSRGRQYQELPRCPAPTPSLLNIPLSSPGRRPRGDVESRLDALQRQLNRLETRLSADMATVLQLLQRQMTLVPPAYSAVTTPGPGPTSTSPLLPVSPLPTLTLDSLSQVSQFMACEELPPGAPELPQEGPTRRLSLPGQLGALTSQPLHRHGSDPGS
row,SMILES,"hERG current change (%, negative = inhibition) at 10uM"
1,COc1ccc(CCN=C(N)NS(=O)(=O)c2ccccc2)cc1,9.06%
2,C#CCOCCOCCOCCNc1nc(N2CCN(C(=O)[C@H]([C@@H](C)CC)n3cc(CCC[NH+]=C(N)N)nn3)CC2)nc(N2CCN(C(=O)[C@H](CCCC[NH3+])n3cc(CC(C)O)nn3)CC2)n1.[Cl-] (stereo partly shown),14.1%
3,CCn1cc(C(=O)O)c(=O)c2cnc(N3CCN(C(=S)NC(=O)c4ccccc4Cl)CC3)nc21,20.7%
4,CC1C(c2cccs2)=[N+]([O-])C(C)(C(=O)c2ccc(Cl)cc2)N1O (stereo not shown),7.52%
5,O=C(CSc1nnc(CNC(=O)c2ccccc2)o1)Nc1ccc2c(c1)OCCO2,11.9%
6,Oc1ccc(-c2csc(Nc3cccnc3)n2)cc1,-2.34%
7,O=C(O)c1cccc2c1C(=O)c1ccc(-c3ccc(Cl)c(C(F)(F)F)c3)cc1S2(=O)=O,7.61%
8,COc1ccc(CNC(=O)C(C)N2C(=O)NC(c3ccccc3)(c3ccccc3)C2=O)cc1 (stereo not shown),-86.5%
9,CC(=O)N(CCCN(C)C)CCC(C)CCC=C(C)C (stereo not shown),-36.3%
10,CCCCNC(=O)N1CCN(c2ccnc3cc(Cl)ccc23)CC1,-78.2%
11,CN1CC(=O)N(CC(=O)Nc2ccc(SC(F)F)cc2)C1=O,-23.5%
12,COc1ccc(-n2nc(C(=O)NCC(=O)NC(C)C)c3ccccc3c2=O)cc1OC,14.9%
13,NS(=O)(=O)c1ccc(NC(=O)COC(=O)COc2ccc3ccccc3c2)cc1,22%
14,Cc1cc(C)cc(NC(=O)NC2CCCCCCC2)c1,-5.07%
15,O=C1CC(N2CCN(C/C=C/c3ccccc3)CC2)C(=O)N1Cc1cccs1 (stereo not shown),-74.8%
16,O=C(CC1C(=O)NCCN1Cc1cccc(Oc2ccccc2)c1)NCc1cccnc1 (stereo not shown),-10.6%
17,COC(=O)c1ccc(C(=O)OC)c(NC(=S)N2CCN(C)CC2)c1,20.4%
18,CCn1nc(NC(=O)C2CCCO2)c2cc3cccc(C)c3nc21 (stereo not shown),9.1%
19,COC(=O)c1cc(OC)c(OC)cc1NC(=O)C(C)Sc1ccc(C)cc1 (stereo not shown),-2.69%
20,Cc1cccc(OCC(=O)NC2CCCc3ccccc32)c1C (stereo not shown),17.9%
21,CN(C)S(=O)(=O)c1ccc(NC(=O)CSc2nnnn2C)cc1,12.1%
22,CCCCn1c(O)c(/C=C2\C=NN=C2c2ccccc2)sc1=S,2.83%

row,SMILES,"hERG current change (%, negative = inhibition) at 10uM"
1,Cc1cc(NCCO)c2ccccc2n1.Cl,6.81%
2,O=C(c1ccccc1)N1CCN(c2ccc(Cl)cc2)CC1,-25.1%
3,Cc1ccc2[nH]c(=O)c(CN(CC3CCCO3)S(=O)(=O)c3cccc4nsnc34)cc2c1 (stereo not shown),-23.3%
4,CCc1c(C)nc2c(C#N)c(C)[nH]n2c1=O,5.77%
5,COc1cccc(NC(=O)C2CC(=O)N/C(=N/NC(=O)c3ccc(C)cc3)S2)c1 (stereo not shown),7.13%
6,CCC(C(=O)O/N=C(\N)c1ccccc1)c1ccccc1 (stereo not shown),8.05%
7,CC(C)Nc1ccc(Cl)cc1[N+](=O)[O-],14.3%
8,Cc1ccc(NC(=O)c2cccnc2)cc1S(=O)(=O)N1CCOCC1,-4.35%
9,Cc1cccc(C(=O)OC(C)C(=O)Nc2ccc(S(=O)(=O)N3CCCC3)cc2)c1O (stereo not shown),15.7%
10,CSCC[C@H](NC(=O)Nc1ccc(OC(F)(F)F)cc1)C(=O)O,2.27%
11,Cc1cccc(C)c1NC(=O)CSc1nnc([C@H](C)NC(=O)OC(C)(C)C)o1,-3.35%
12,COc1ccc(C)cc1NC(=O)Nc1ccc2c(c1)CCC2,17.5%
13,COc1cccc(NS(=O)(=O)NC(=O)c2cn(C)c3ccccc23)c1,20%
14,CC(=O)NN1C(=O)c2ccc(Oc3ccc4c(c3)C(=O)N(NC(C)=O)C4=O)cc2C1=O,8.92%
15,CC(C)COC(=O)c1nnsc1NC(=O)Nc1ccccc1,5.29%
16,CC1CC(C)CN(CC(=O)c2c[nH]c3ccccc23)C1 (stereo not shown),-5.76%
17,N#Cc1ccc(-n2nnc3ccccc3c2=O)c([N+](=O)[O-])c1,24.6%
18,S=C(NCCc1ccccc1)NCc1cccc(Cl)c1,6.88%
19,Cc1ccc(NC(=O)C2CCCN(c3nccc(C)n3)C2)c(C)c1 (stereo not shown),5.08%
20,O=C(N/N=C/c1ccc2c(c1)OCO2)c1ccc2ccccc2n1,10.1%
21,COc1ccc(N2CCN(C(=O)c3oc4ccccc4c3C)CC2)cc1,-31.9%
